Test results as given in the supplement of paper PMC8728848.
Some of the results follow.

Experiments:
Assay in all cases: glycan array binding signal (z-score within array); higher = stronger binding
Settings in all cases: glycan notation: IUPAC condensed, linker removed
[1] = target: Neu5Ac(a2-3)Gal
Outline: (§1)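 Glycan array data came from 3228 arrays in the Consortium for Functional Glycomics database, and only arrays with an available protein sequence were kept. Glycan names were put into IUPAC-condensed notation, and columns mapping to the same glycan were averaged. The binding signal is a within-array Z-score, averaged across arrays of one protein sequence run at different concentrations or buffers and across linkers. A negative Z-score can be read as non-binding.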

[2] = target: Neu5Ac(a2-3)Gal(b1-3)GalNAc
Outline: as §1

[3] = target: Neu5Ac(a2-3)Gal(b1-3)GalNAc(b1-3)Gal(a1-4)Gal(b1-4)Glc
Outline: as §1

[4] = target: Neu5Ac(a2-3)Gal(b1-3)GalNAc(b1-4)Gal(b1-4)Glc
Outline: as §1

[5] = target: Neu5Ac(a2-3)Gal(b1-3)GalNAc(b1-4)[Neu5Ac(a2-3)]Gal(b1-4)Glc
Outline: as §1

[6] = target: Neu5Ac(a2-3)Gal(b1-3)GalNAc(b1-4)[Neu5Ac(a2-8)Neu5Ac(a2-3)]Gal(b1-4)Glc
Outline: as §1

[7] = target: Neu5Ac(a2-3)Gal(b1-3)GalNAc6S
Outline: as §1

[8] = target: Neu5Ac(a2-3)Gal(b1-3)GlcNAc
Outline: as §1

[9] = target: Neu5Ac(a2-3)Gal(b1-3)GlcNAc(b1-2)Man
Outline: as §1

[10] = target: Neu5Ac(a2-3)Gal(b1-3)GlcNAc(b1-2)Man(a1-3)[GlcNAc(b1-4)][Neu5Ac(a2-3)Gal(b1-3)GlcNAc(b1-2)Man(a1-6)]Man(b1-4)GlcNAc(b1-4)GlcNAc
Outline: as §1

[11] = target: Neu5Ac(a2-3)Gal(b1-3)GlcNAc(b1-2)Man(a1-3)[Neu5Ac(a2-3)Gal(b1-3)GlcNAc(b1-2)Man(a1-6)]Man(b1-4)GlcNAc(b1-4)GlcNAc
Outline: as §1

[12] = target: Neu5Ac(a2-3)Gal(b1-3)GlcNAc(b1-2)[Neu5Ac(a2-3)Gal(b1-3)GlcNAc(b1-4)]Man(a1-6)[Neu5Ac(a2-3)Gal(b1-3)GlcNAc(b1-2)Man(a1-3)]Man(b1-4)GlcNAc(b1-4)GlcNAc
Outline: as §1

[13] = target: Neu5Ac(a2-3)Gal(b1-3)GlcNAc(b1-3)Gal(b1-3)GlcNAc
Outline: as §1

[14] = target: Neu5Ac(a2-3)Gal(b1-3)GlcNAc(b1-3)Gal(b1-4)GlcNAc
Outline: as §1

[15] = target: Neu5Ac(a2-3)Gal(b1-3)GlcNAc(b1-3)GalNAc
Outline: as §1

[16] = target: Neu5Ac(a2-3)Gal(b1-3)GlcNAc(b1-6)GalNAc
Outline: as §1

[17] = target: Neu5Ac(a2-3)Gal(b1-3)GlcNAc6S
Outline: as §1

[18] = target: Neu5Ac(a2-3)Gal(b1-3)[Fuc(a1-4)]GlcNAc
Outline: as §1

[19] = target: Neu5Ac(a2-3)Gal(b1-3)[Fuc(a1-4)]GlcNAc(b1-3)Gal(b1-3)[Fuc(a1-4)]GlcNAc
Outline: as §1

[20] = target: Neu5Ac(a2-3)Gal(b1-3)[Fuc(a1-4)]GlcNAc(b1-3)Gal(b1-4)[Fuc(a1-3)]GlcNAc
Outline: as §1

[21] = target: Neu5Ac(a2-3)Gal(b1-3)[GlcNAc(b1-6)]GalNAc
Outline: as §1

[22] = target: Neu5Ac(a2-3)Gal(b1-3)[Neu5Ac(a2-6)]GalNAc
Outline: as §1

[23] = target: Neu5Ac(a2-3)Gal(b1-3)[Neu5Ac(a2-6)]GlcNAc(b1-3)[Fuc(a1-3)[Gal(b1-4)]GlcNAc(b1-6)]Gal(b1-4)Glc
Outline: as §1

[24] = target: Neu5Ac(a2-3)Gal(b1-3)]Neu5Ac(a2-3)Gal(b1-4)]GlcNAc
Outline: as §1

[25] = target: Neu5Ac(a2-3)Gal(b1-4)Glc
Outline: as §1

[26] = target: Neu5Ac(a2-3)Gal(b1-4)GlcNAc
Outline: as §1

[27] = target: Neu5Ac(a2-3)Gal(b1-4)GlcNAc(b1-2)Man
Outline: as §1

[28] = target: Neu5Ac(a2-3)Gal(b1-4)GlcNAc(b1-2)Man(a1-3)[GlcNAc(b1-4)][Neu5Ac(a2-3)Gal(b1-4)GlcNAc(b1-2)Man(a1-6)]Man(b1-4)GlcNAc(b1-4)GlcNAc
Outline: as §1

[29] = target: Neu5Ac(a2-3)Gal(b1-4)GlcNAc(b1-2)Man(a1-3)[Neu5Ac(a2-3)Gal(b1-4)GlcNAc(b1-2)Man(a1-6)]Man(b1-4)GlcNAc(b1-4)GlcNAc
Outline: as §1

[30] = target: Neu5Ac(a2-3)Gal(b1-4)GlcNAc(b1-2)Man(a1-3)[Neu5Ac(a2-3)Gal(b1-4)GlcNAc(b1-2)Man(a1-6)]Man(b1-4)GlcNAc(b1-4)[Fuc(a1-6)]GlcNAc
Outline: as §1

[31] = target: Neu5Ac(a2-3)Gal(b1-4)GlcNAc(b1-2)Man(a1-3)[Neu5Ac(a2-6)Gal(b1-4)GlcNAc(b1-2)Man(a1-6)]Man(b1-4)GlcNAc(b1-4)GlcNAc
Outline: as §1

[32] = target: Neu5Ac(a2-3)Gal(b1-4)GlcNAc(b1-2)[Neu5Ac(a2-3)Gal(b1-4)GlcNAc(b1-4)]Man(a1-3)[GlcNAc(b1-4)][Neu5Ac(a2-3)Gal(b1-4)GlcNAc(b1-2)[Neu5Ac(a2-3)Gal(b1-4)GlcNAc(b1-6)]Man(a1-6)]Man(b1-4)GlcNAc(b1-4)GlcNAc
Outline: as §1

[33] = target: Neu5Ac(a2-3)Gal(b1-4)GlcNAc(b1-2)[Neu5Ac(a2-3)Gal(b1-4)GlcNAc(b1-4)]Man(a1-3)[GlcNAc(b1-4)][Neu5Ac(a2-3)Gal(b1-4)GlcNAc(b1-4)Man(a1-6)]Man(b1-4)GlcNAc(b1-4)GlcNAc
Outline: as §1

[34] = target: Neu5Ac(a2-3)Gal(b1-4)GlcNAc(b1-2)[Neu5Ac(a2-3)Gal(b1-4)GlcNAc(b1-6)]Man(a1-6)[Neu5Ac(a2-3)Gal(b1-4)GlcNAc(b1-2)Man(a1-3)][GlcNAc(b1-4)]Man(b1-4)GlcNAc(b1-4)GlcNAc
Outline: as §1

[35] = target: Neu5Ac(a2-3)Gal(b1-4)GlcNAc(b1-3)Gal
Outline: as §1

[36] = target: Neu5Ac(a2-3)Gal(b1-4)GlcNAc(b1-3)Gal(b1-3)GlcNAc
Outline: as §1

[37] = target: Neu5Ac(a2-3)Gal(b1-4)GlcNAc(b1-3)Gal(b1-4)GlcNAc
Outline: as §1

[38] = target: Neu5Ac(a2-3)Gal(b1-4)GlcNAc(b1-3)Gal(b1-4)GlcNAc(b1-2)Man(a1-3)[Neu5Ac(a2-3)Gal(b1-4)GlcNAc(b1-3)Gal(b1-4)GlcNAc(b1-2)Man(a1-6)]Man(b1-4)GlcNAc(b1-4)GlcNAc
Outline: as §1

[39] = target: Neu5Ac(a2-3)Gal(b1-4)GlcNAc(b1-3)Gal(b1-4)GlcNAc(b1-3)Gal(b1-4)GlcNAc
Outline: as §1

[40] = target: Neu5Ac(a2-3)Gal(b1-4)GlcNAc(b1-3)Gal(b1-4)GlcNAc(b1-3)Gal(b1-4)GlcNAc(b1-2)Man(a1-3)[Neu5Ac(a2-3)Gal(b1-4)GlcNAc(b1-3)Gal(b1-4)GlcNAc(b1-3)Gal(b1-4)GlcNAc(b1-2)Man(a1-6)]GalNAc
Outline: as §1

[41] = target: Neu5Ac(a2-3)Gal(b1-4)GlcNAc(b1-3)Gal(b1-4)GlcNAc(b1-3)GalNAc
Outline: as §1

[42] = target: Neu5Ac(a2-3)Gal(b1-4)GlcNAc(b1-3)Gal(b1-4)GlcNAc(b1-3)[Neu5Ac(a2-3)Gal(b1-4)GlcNAc(b1-3)Gal(b1-4)GlcNAc(b1-6)]GalNAc
Outline: as §1

[43] = target: Neu5Ac(a2-3)Gal(b1-4)GlcNAc(b1-3)Gal(b1-4)GlcNAc(b1-6)[Gal(b1-3)]GalNAc
Outline: as §1

[44] = target: Neu5Ac(a2-3)Gal(b1-4)GlcNAc(b1-3)Gal(b1-4)[Fuc(a1-3)]GlcNAc
Outline: as §1

[45] = target: Neu5Ac(a2-3)Gal(b1-4)GlcNAc(b1-3)GalNAc
Outline: as §1

B1: Dectin2 (Homo sapiens), Q6EIG7 (protein)
chain: MMQEQQPQSTEKRGWLSLRLWSVAGISIALLSACFIVSCVVTYHFTYGETGKRLSELHSYHSSLTCFSEGTKVPAWGCCPASWKSFGSSCYFISSEEKVWSKSEQNCVEMGAHLVVFNTEAEQNFIVQQLNESFSYFLGLSDPQGNNNWQWIDKTPYEKNVRFWHLGEPNHSAEQCASIVFWKPTGWGWNDVICETRRNSICEMNKIYL
[1]
  glycan array binding signal (z-score): -0.177
[2]
  glycan array binding signal (z-score): 0.09
[3]
  glycan array binding signal (z-score): -0.15
[4]
  glycan array binding signal (z-score): -0.106
[5]
  glycan array binding signal (z-score): -0.178
[6]
  glycan array binding signal (z-score): -0.165
[7]
  glycan array binding signal (z-score): -0.146
[8]
  glycan array binding signal (z-score): -0.175
[9]
  glycan array binding signal (z-score): -0.175
[10]
  glycan array binding signal (z-score): -0.116
[11]
  glycan array binding signal (z-score): -0.075
[12]
  glycan array binding signal (z-score): 0.073
[13]
  glycan array binding signal (z-score): -0.194
[14]
  glycan array binding signal (z-score): -0.195
[15]
  glycan array binding signal (z-score): -0.184
[16]
  glycan array binding signal (z-score): -0.176
[17]
  glycan array binding signal (z-score): -0.088
[18]
  glycan array binding signal (z-score): -0.165
[19]
  glycan array binding signal (z-score): -0.114
[20]
  glycan array binding signal (z-score): -0.071
[21]
  glycan array binding signal (z-score): -0.193
[22]
  glycan array binding signal (z-score): -0.135
[23]
  glycan array binding signal (z-score): -0.178
[24]
  glycan array binding signal (z-score): -0.206
[25]
  glycan array binding signal (z-score): -0.156
[26]
  glycan array binding signal (z-score): -0.183
[27]
  glycan array binding signal (z-score): -0.027
[28]
  glycan array binding signal (z-score): -0.193
[29]
  glycan array binding signal (z-score): -0.185
[30]
  glycan array binding signal (z-score): -0.142
[31]
  glycan array binding signal (z-score): 0.195
[32]
  glycan array binding signal (z-score): -0.203
[33]
  glycan array binding signal (z-score): -0.201
[34]
  glycan array binding signal (z-score): -0.139
[35]
  glycan array binding signal (z-score): -0.206
[36]
  glycan array binding signal (z-score): -0.196
[37]
  glycan array binding signal (z-score): -0.189
[38]
  glycan array binding signal (z-score): 0.038
[39]
  glycan array binding signal (z-score): -0.191
[40]
  glycan array binding signal (z-score): 0.638
[41]
  glycan array binding signal (z-score): -0.182
[42]
  glycan array binding signal (z-score): -0.122
[43]
  glycan array binding signal (z-score): -0.152
[44]
  glycan array binding signal (z-score): -0.177
[45]
  glycan array binding signal (z-score): -0.157
